Reference: publication PMC12136788
This is one part of the list.

B1: chr12:493273:493274:-_ENSG00000073614_ENST00000399788|hu_mus|hu_hu_hu_mus_False|48_48 (ssRNA)
RNA: GGGAGUUCUACAGUCCGACGAUCUUUUCUCUCCACCACAGGGAUCUUCAAUGUAGAUCCUUGAAGUUCCCAAAAUUUUGCCAGUUGAUCCAAGAAAUCCAAUCUUACUCUAGUCAUUGCCUCAAGUUCAUUCAGGCGCUGGACCAACAGAGGAUUGAGCAUCA
B2: chr5:128440902:128440903:+_ENSG00000066583_ENST00000173527|hu_mus|hu_hu_hu_mus_True|18_38 (ssRNA)
RNA: GGGAGUUCUACAGUCCGACGAUCUUGAACGGUGCUGCCAAGUCCUUUGGGGUAUUGUUCCGUUAUGAUAACUGGAAUCCCUAAGAUCCGAGCUCCUUGCAACAAUCUCUGUCCCACGCUAAUAAUAUCCCCAAAGUAUUUGAUCAACAGAGGAUUGAGCAUCA
B3: chr2:223789231:223789232:+_ENSG00000123983_ENST00000392066|hu_hu|FALSE|FALSE (ssRNA)
RNA: GGGAGUUCUACAGUCCGACGAUCUUUUGAAAUCUGUUCCAUUUUGUAAUUAUAGGCCAGAAUAAACAGAUUACGUUGAAAACUACUCAUUUCACUGACUUUAUUCAUGACAUUUUUGUAGAUCCGAUCCAUGAUUUCCGGAACCAACAGAGGAUUGAGCAUCA
B4: chr1:23374948:23374949:-_ENSMUSG00000026158_ENSMUST00000027343|mus_hu|motif|central (ssRNA)
RNA: GGGAGUUCUACAGUCCGACGAUCCCAAAUCCUAAUACUCACAGAACACUAGGAAAGCAAAAACUGGCAUAUUAUGGGAACGGAAAAUGAGAAAGUGUUCCAUACUAUACUUAUUGGAACACAAUGUACAACAAAAGUGCUACUCAACAGAGGAUUGAGCAUCA
B5: chr4:113189463:113189464:+_ENSG00000138660_ENST00000274000|hu_hu|FALSE|FALSE (ssRNA)
RNA: GGGAGUUCUACAGUCCGACGAUCUACAGGAUUUACAAAUCCAGAAUACUCGGAAUUUCCAUUAUCAUCCAUUUCGGCACUAACAAAAUCAUUUUCCCACUCCAGCCCAUUGGAAUCAUCAGAGGCUGAUGUAGGAUUACUUCCCAACAGAGGAUUGAGCAUCA
B6: chr3:98235988:98235989:-_ENSG00000080822_ENST00000341181|hu_hu|FALSE|FALSE (ssRNA)
RNA: GGGAGUUCUACAGUCCGACGAUCUAAGCUUCGGCAAAUGCAAGCACAAAGUCCGAUCAAAGCCCCAAAGCACAUCAAACCUAAACUCACAAAAGGUAAAAGGAACUGGCAACGCCAAAGAUAGGUCCUAAGGAGAUCAAUCCCCAACAGAGGAUUGAGCAUCA
B7: chr7:43916975:43916976:-_ENSG00000106608_ENST00000402306|hu_mus|FALSE|FALSE (ssRNA)
RNA: GGGAGUUCUACAGUCCGACGAUCGCCAAACAUGGUGUUAAGGAGUGUAGAUUUCCCUGUGCCAGGCACCCCCAGGGCAGAGAGAACCACUAGCCGAGAUCUCCUGUCUAGGCGGGUAUGCAGCUCCUUGAGAAGCCCAGUGACCAACAGAGGAUUGAGCAUCA
B8: 122561622_122562076_2327_CDS_ENSMUSG00000020124_ENSMUST00000020334|mouse|control|control (ssRNA)
RNA: GGGAGUUCUACAGUCCGACGAUCUUUUAACUUCACAAAGGGCCUUUUUGGAGGUUUGUAUUCCACACUUUCAUGUUUUUCAAAAUCCUCUGCAGCAUUCUCAUCAAAGUAUCUCUUCUUCAAGUCAGGGUCCCAGUCCAAAGCCAACAGAGGAUUGAGCAUCA
B9: 7389461_7389807_1617_ncRNA_ENSMUSG00000031153_ENSMUST00000132456|mouse|control|control (ssRNA)
RNA: GGGAGUUCUACAGUCCGACGAUCCUGCUUCAGGUUGCUGAUGGUCUUCACGUGGCCAUCUCGCUCCUCCUGGGCCUGCUGGAGCUGUUCCCGAACAUUCUGAAGCUCUUCAUCCUUGCCCUUCAGCUCAGCGGCGUGCUCCUCCAACAGAGGAUUGAGCAUCA
B10: chr2:101883234:101883235:+_ENSG00000158435_ENST00000289382|hu_mus|FALSE|FALSE (ssRNA)
RNA: GGGAGUUCUACAGUCCGACGAUCGAAAUACUCCGUGAUCUGGCUUGACUGCAUCAGUUUCAGCAGCAUUUCUAUAGCGACUAAAGGGUUGUUCUCCACUAGAUCUGGAAGUUUCGCUGGAGUAAGGCCAAUGUGAUAAACAAGCAACAGAGGAUUGAGCAUCA
B11: chr6:114267272:114267273:-_ENSG00000196591_ENST00000368632|hu_mus|FALSE|FALSE (ssRNA)
RNA: GGGAGUUCUACAGUCCGACGAUCACAUCGGGCAACAUUCCGGAUUGUGUAGCCUCCUCCACCGAGCAUCAGCAAUGGCAAGUUAAAAGUUUUCACUACUUCUACACAUUUAGCAUGACCUUUGACAGUUAGAUUGAAACAACCCAACAGAGGAUUGAGCAUCA
B12: chr11:20101544:20101545:+_ENSMUSG00000020149_ENSMUST00000020358|mus_mus|FALSE|FALSE (ssRNA)
RNA: GGGAGUUCUACAGUCCGACGAUCUGACGCAGCCGCCGCCCCAACUCUCCGCGCCACAGGUAAUGGAAAGGGAGGAAUGAGCUAAGCUGUUCCGGUAGAGCAAACGUCGACCCCACUCCGACCCUUAGAACACAAUCAGCAGCCCAACAGAGGAUUGAGCAUCA
B13: chr1:225611761:225611762:-_ENSG00000143815_ENST00000272163|hu_mus|hu_hu_hu_mus_True|58_88 (ssRNA)
RNA: GGGAGUUCUACAGUCCGACGAUCCCAGGCCAUCGGCCUCUGACCACUUCACCAUCGACAAACUUCCUACUUGGCAUUUUCUAUAAUUAGUCUGGCCGCGCUCCGGCGGGAACUCCAGCCACUCCAGGACAGUCACCAGCAGCCCAACAGAGGAUUGAGCAUCA
B14: chr10:32300344:32300345:-_ENSG00000170759_ENST00000302418|hu_hu|FALSE|FALSE (ssRNA)
RNA: GGGAGUUCUACAGUCCGACGAUCAAGAAGAGUAGGUAGGAAACAGCUGUACAGGCCAGGUAUAAUUUAUACAUUUUUUUUAAAAGUUAUAAUUCUACAAUCCCAAGGGAGUAGAGGUUAUAGUCAUUGAAUGACUGCUUGAUACAACAGAGGAUUGAGCAUCA
B15: chr1:127300101:127300102:-_ENSMUSG00000026341_ENSMUST00000027579|perfect_dup|FALSE|FALSE (ssRNA)
RNA: GGGAGUUCUACAGUCCGACGAUCGGUGUACUGUUUGAUCCACUUUGACCCAUCGGUGUCAUACUUGUUAAACUCUUUUACUAAAUCUGGGCAGACAUAACUGUAGCGUUCCUUCACUGCUUUCGCAGUUUCCAAGGACUGCUCCAACAGAGGAUUGAGCAUCA
B16: chr2:68236527:68236528:-_ENSMUSG00000027030_ENSMUST00000102715|mus_mus|FALSE|FALSE (ssRNA)
RNA: GGGAGUUCUACAGUCCGACGAUCCAUGGAACCUCCACUUAGUAAUUUCAUGACCAGCCACAGCUCAUCUUUGACCACAAAGGAGGUGUAAUAAGUCACUACGUUGGGAUGGCUGCAUUGGCUCAUGGCUUGAAUUUCUUUCAGCAACAGAGGAUUGAGCAUCA
B17: chr3:179287964:179287965:+_ENSG00000136518_ENST00000429709|hu_hu|hu_hu_hu_mus_True|28_38 (ssRNA)
RNA: GGGAGUUCUACAGUCCGACGAUCCUUGAGUGGUGAGAUGGCCUCCAUGUUCUCCCUGGGCACGCGGAGGGCAUUGGUGUCUAUGUAGUAGGUGGGCCCGCCUUGUUUGCCUUUAUCACCAUCAAUCUCCAUCAUUGUACUUCCCAACAGAGGAUUGAGCAUCA
B18: 70718109_70718229_1044_3pUTR_ENSMUSG00000020817_ENSMUST00000076270|mouse|control|control (ssRNA)
RNA: GGGAGUUCUACAGUCCGACGAUCUCUCCAUUCUCUGCAUGUCUCUCAUCAGCAAACGCUGAGAUUCCAGAAACUGGUCGUUGGCCUUCUGCCAUGUAUGCUUUAACUGGUUGUGUUGUUGUCGUUCUUGUUCCAAGAGAUGGCCAACAGAGGAUUGAGCAUCA
B19: chr10:112654219:112654220:+_ENSG00000150593_ENST00000280154|hu_hu|FALSE|FALSE (ssRNA)
RNA: GGGAGUUCUACAGUCCGACGAUCCCAAAGGGACUUUAAUAAAUCCAAAAUCAUCUUAAAUGUACUUUCUCCAGUUGACUCUAAAACCAUUAUAAUAGCUUCAUAUACAAGCUCAUGGUGAAAAUGAGGUACUUCCAGUUCCUUCAACAGAGGAUUGAGCAUCA
B20: chr3:176740097:176740098:-_ENSG00000177565_ENST00000430069|hu_mus|hu_hu_hu_mus_True|28_78 (ssRNA)
RNA: GGGAGUUCUACAGUCCGACGAUCUGUUUUGUAUACCACAAAAGGAGGCACUUUCAGUAUCUGUAAAAGGUGUUUAGUCCUAAAACAUACUCACCUAGAGGAUAACUAAAACAGAAUAUCUGUUACACUCUAAGACCUACUCCACAACAGAGGAUUGAGCAUCA
B21: chr7:151622947:151622948:-_ENSMUSG00000031078_ENSMUST00000033407|mus_mus|motif|central (ssRNA)
RNA: GGGAGUUCUACAGUCCGACGAUCGAAGAGCCCGUAUCUGCCCUUGCACACCCCACGCCACCAGCCAUCGUCAAUCAUUUCGGUGUUGGUGAUGAUGUCAUCAGGGUCAAAGGAGAUCUCAUCAUCGCCAGCAGCCUGGUAGUCCAACAGAGGAUUGAGCAUCA
B22: 151047108_151049291_758_3pUTR_ENSG00000113140_ENST00000231061|human|control|control (ssRNA)
RNA: GGGAGUUCUACAGUCCGACGAUCCCGCAUGCGCAGGGGGAAUUCGGUCAGCUCAGAGUCCAGGCAAGGGGGGAUGUAUUUGCAAGGCCCGAUGUAGUCCAGGUGGAGCUUGUGGCCCUUCUUGGUGCCCUCCAGGGUGCACUUCAACAGAGGAUUGAGCAUCA

The binders below were run against T1, UNK ZnF1-3 (human, UniProt Q9C0B0 31-174) (assay: nsRBNS (natural sequence RNA bind-n-seq); RBNS binding buffer (assumed for nsRBNS): 25 mM Tris pH 7.5, 150 mM KCl, 3 mM MgCl2, 0.01% Triton X-100, 500 ug/ml BSA, 20 U/ml SUPERase-In, 4 C; UNK is unkempt and MSI1 is Musashi-1; names of the RNAs are library labels; protein concentration not given here; high values mean tight binding).
T1 sequence: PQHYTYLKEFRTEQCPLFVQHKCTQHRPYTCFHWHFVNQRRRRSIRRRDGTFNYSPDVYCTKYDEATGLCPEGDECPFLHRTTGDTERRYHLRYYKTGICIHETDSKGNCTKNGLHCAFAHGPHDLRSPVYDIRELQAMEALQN
For B1, the binding signal was 1.11 enrichment R. B2 gave a binding signal of 0.806 enrichment R. Work on B3 yielded a binding signal of 0.52 enrichment R. In the case of B4, the binding signal is reported as 1.03 enrichment R. B5 showed a binding signal of 0.556 enrichment R. Binder B6 has a binding signal of 2.13 enrichment R. B7 was tested, and the binding signal was 1.3 enrichment R. Binder B8 has a binding signal of 0.939 enrichment R. B9 gave a binding signal of 0.533 enrichment R. Binder B10 has a binding signal of 1.2 enrichment R. B11 was tested, and the binding signal was 1.56 enrichment R. Work on B12 yielded a binding signal of 1.68 enrichment R. B13 gave a binding signal of 1.17 enrichment R. Work on B14 yielded a binding signal of 2.9 enrichment R. In the case of B15, the binding signal is reported as 0.437 enrichment R. B16 gave a binding signal of 0.924 enrichment R. In the case of B17, the binding signal is reported as 0.581 enrichment R. B18 was tested, and the binding signal was 0.647 enrichment R. Binder B19 has a binding signal of 1.04 enrichment R. For B20, the binding signal was 0.739 enrichment R. In the case of B21, the binding signal is reported as 1.13 enrichment R. In the case of B22, the binding signal is reported as 0.962 enrichment R.
